Source: article PMC4336329 (PLoS ONE, 2015)
Out of some 310,000 compounds screened, about 2,200 (0.71%) showed an effect of 50% or more. The effect is printed as a negative number. The list shows a part of the results.

What follows are molecules tested against human ether-à-go-go-related gene (hERG) potassium channel (human, UniProt Q12809) (assay: primary screen, population patch clamp on CHO cells stably expressing hERG).
Sequence of human ether-à-go-go-related gene (hERG) potassium channel (Q12809 whole entry, looked up): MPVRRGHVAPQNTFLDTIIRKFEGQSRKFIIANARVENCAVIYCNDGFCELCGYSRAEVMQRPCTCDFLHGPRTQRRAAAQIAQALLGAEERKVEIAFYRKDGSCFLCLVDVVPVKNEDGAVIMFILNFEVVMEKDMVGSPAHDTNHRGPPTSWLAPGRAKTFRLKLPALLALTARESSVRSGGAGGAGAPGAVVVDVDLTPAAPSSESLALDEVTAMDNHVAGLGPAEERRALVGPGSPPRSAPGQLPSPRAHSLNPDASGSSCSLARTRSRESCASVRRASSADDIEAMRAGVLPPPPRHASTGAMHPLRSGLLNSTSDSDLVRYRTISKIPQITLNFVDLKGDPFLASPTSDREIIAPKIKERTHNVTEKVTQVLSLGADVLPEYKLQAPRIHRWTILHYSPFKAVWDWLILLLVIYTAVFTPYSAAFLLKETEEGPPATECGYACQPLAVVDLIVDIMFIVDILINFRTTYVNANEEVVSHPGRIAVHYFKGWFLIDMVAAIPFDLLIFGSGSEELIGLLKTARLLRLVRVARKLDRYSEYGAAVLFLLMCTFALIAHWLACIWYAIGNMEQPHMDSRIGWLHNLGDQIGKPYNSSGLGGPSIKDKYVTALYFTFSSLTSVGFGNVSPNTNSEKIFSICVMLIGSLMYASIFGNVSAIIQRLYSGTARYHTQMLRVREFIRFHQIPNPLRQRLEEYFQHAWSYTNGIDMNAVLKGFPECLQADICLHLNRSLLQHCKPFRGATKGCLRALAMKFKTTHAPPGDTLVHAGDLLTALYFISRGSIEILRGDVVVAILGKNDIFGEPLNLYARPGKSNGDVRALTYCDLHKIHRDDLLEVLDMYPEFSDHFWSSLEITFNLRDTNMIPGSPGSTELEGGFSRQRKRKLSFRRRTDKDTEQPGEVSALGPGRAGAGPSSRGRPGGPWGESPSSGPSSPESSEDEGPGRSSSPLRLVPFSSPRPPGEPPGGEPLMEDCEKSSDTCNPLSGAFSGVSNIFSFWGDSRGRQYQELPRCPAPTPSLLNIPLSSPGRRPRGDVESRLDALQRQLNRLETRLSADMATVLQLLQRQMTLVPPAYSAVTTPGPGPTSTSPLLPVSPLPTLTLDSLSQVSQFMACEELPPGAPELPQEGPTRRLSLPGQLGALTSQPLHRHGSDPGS

Going from `O=C(CN(C1CCCCC1)C1CCCCC1)N1CCc2ccccc2C1.O=C(O)C(=O)O` to `O=C(c1ccccc1)c1ccc(C(=O)N2CCCC(C(F)(F)F)C2)cc1` (centres unmarked), the “hERG current change (%, negative = inhibition) at 1uM” value falls from 8.82% to 5.52%.

First: CC1CCCN(c2cc3c(cc2[N+](=O)[O-])C(=O)N(c2ccccc2)C3=O)C1 (centres unmarked)
Second: CN1CCCC(C(=O)c2ccc(-c3ccccc3)cc2)C1 (centres unmarked)
The “hERG current change (%, negative = inhibition) at 1uM” value of the first is higher: 7.63% for the first, 5.8% for the second.

First: CC(=O)Nc1ccc(S(=O)(=O)N(C)CC(=O)OCC(=O)NNC(=O)c2ccccc2F)cc1
Second: CN(c1ccccc1)S(=O)(=O)c1ccc(C(=O)NNC(=O)c2ccccc2)cc1
The “hERG current change (%, negative = inhibition) at 1uM” value of the first is higher: 14.8% for the first, 5.77% for the second.

First: COc1cc(CNCC(C)C)cc(Br)c1OCC(=O)Nc1ccccc1.Cl
Second: COc1ccccc1NC(=O)CC1C(=O)NCCN1C(=O)Nc1ccccc1 (centres unmarked)
The “hERG current change (%, negative = inhibition) at 1uM” value of the first is higher: 4.54% for the first, 1.06% for the second.

Compared with `COc1ccccc1S(=O)(=O)N1CCN(S(=O)(=O)c2cccs2)CC1`, `Cc1cccc(NC(=O)c2ccc(S(=O)(=O)N3CCOCC3)cc2)c1C` is higher in “hERG current change (%, negative = inhibition) at 1uM” value: 12.3% for the first, 13.1% for the second.

Compared with `O=C1[C@H]2[C@@H](/C=C/c3ccccc3)N3C(=O)CN(CCO)C(=O)[C@@]3(Cc3ccccc3)[C@H]2C(=O)N1c1ccccc1`, `COc1cc(/C(=C/c2ccccc2)c2ccccc2)c2c(c1)oc1ccccc12` is lower in “hERG current change (%, negative = inhibition) at 1uM” value: 20.9% for the first, 15.8% for the second.

First: NC(=O)CC(NC(=O)Cc1cccc2ccccc12)c1ccc(NCc2ccccn2)c([N+](=O)[O-])c1 (centres unmarked)
Second: CC(=O)Nc1cccc(Oc2nc(-c3ccccn3)nc3ccccc23)c1
The “hERG current change (%, negative = inhibition) at 1uM” value of the first is higher: 16.3% for the first, 10.4% for the second.

Compared with `C[C@H](NC(=O)c1nc[nH]c1C(=O)NCCCCC[NH3+])C(=O)OCc1ccccc1.[Cl-]`, `Cc1nc(SCC(=O)Nc2ccc(OCc3ccccc3)cc2)n[nH]1` is lower in “hERG current change (%, negative = inhibition) at 1uM” value: 15.1% for the first, 12% for the second.

First: Cc1nn(C)cc1CNC(=O)Nc1cccc(Cl)c1
Second: Cc1ccc(NC(=O)CSc2nc(N)c(-c3ccccc3)c(=O)[nH]2)cc1Cl
The “hERG current change (%, negative = inhibition) at 1uM” value of the first is lower: 7.62% for the first, 16.3% for the second.

Compared with `Cc1cccc2nc(COc3ccc(-c4ccccc4)cc3)cn12`, `Cc1ccc(-c2n[nH]c(=S)n2Cc2ccccc2)cc1` is higher in “hERG current change (%, negative = inhibition) at 1uM” value: 6.42% for the first, 8.36% for the second.

First: Cc1cc2c(cc1C)C(=O)NC(C)(C)C2
Second: CC(=O)Nc1cc(C(C)C)c(O)c(C(C)C)c1
The “hERG current change (%, negative = inhibition) at 1uM” value of the first is higher: 16% for the first, -1.01% for the second.

Going from `O=C(O)c1cc2c(cc1Br)OCCCO2` to `O=C(NN=C1CCCC1)c1cc(O)cc(O)c1`, the “hERG current change (%, negative = inhibition) at 1uM” value rises from 3.06% to 13.4%.

Going from `COc1ccc(C=O)cc1Cn1ccnc1.Cl` to `COc1ccc(OC)c(/C=N/NC(=O)c2ccncc2)c1`, the “hERG current change (%, negative = inhibition) at 1uM” value rises from 9.02% to 13.6%.

First: COc1ccc(Cn2c(=O)[nH]c3cc(C(=O)NCCCN4CCCCC4)ccc3c2=O)cc1
Second: COc1ccc(C(=O)NC2(C(F)(F)F)NC(=O)N(CCCc3ccccc3)C2=O)c(OC)c1OC (centres unmarked)
The “hERG current change (%, negative = inhibition) at 1uM” value of the first is higher: 5.03% for the first, 1.27% for the second.

First: Cc1ccc2nc(Nc3ccccc3)c(/C=N/O)c(=O)n2c1
Second: COC(=O)c1ccc(NC(=O)c2sc3nc(-c4ccccc4)cn3c2C)cc1
The “hERG current change (%, negative = inhibition) at 1uM” value of the first is lower: 11.2% for the first, 12.3% for the second.

First: NC(=O)c1ccc[n+]([C@H]2O[C@@H](COP(=O)([O-])OP(=O)(O)OC[C@H]3O[C@@H](n4cnc5c(N)ncnc54)[C@H](O)[C@@H]3O)[C@H](O)[C@@H]2O)c1
Second: CCN(CC)S(=O)(=O)c1cc(NC(=O)c2cccc(N3C(=O)CCC3=O)c2)ccc1Cl
The “hERG current change (%, negative = inhibition) at 1uM” value of the first is higher: 15.6% for the first, 11.2% for the second.

Compared with `COc1ccc(-c2cc(C(F)(F)F)n3nc(C(=O)O)nc3n2)cc1`, `Cc1ccc(-c2cc(C(=O)N3CCCC(C(F)(F)F)C3)c3ccccc3n2)o1` (centres unmarked) is lower in “hERG current change (%, negative = inhibition) at 1uM” value: 17.1% for the first, -2.51% for the second.

Going from `CC(C)[C@@H]1NC(=O)c2cc([N+](=O)[O-])cc(I)c2NCCC[C@@H](C(=O)NC(CC(=O)O)C(N)=O)NC(=O)[C@H](CO)NC1=O` (some centres unmarked) to `CCOc1ccc(NC(=O)CN2C(=O)NC3(CCCC3)C2=O)cc1S(=O)(=O)N1CCCCC1`, the “hERG current change (%, negative = inhibition) at 1uM” value rises from -17.3% to 14.5%.

Going from `CCN(C(=O)c1cc(S(=O)(=O)N2CCCC2)ccc1C)C1CCS(=O)(=O)C1` (centres unmarked) to `Cc1cc(C)cc(N2CCN(C(=O)N3CCOCC3)CC2)c1`, the “hERG current change (%, negative = inhibition) at 1uM” value rises from 2.71% to 12.5%.

Compared with `Cc1nccn1Cc1ccccc1`, `O=C1CC(c2ccccc2)NN1` (centres unmarked) is lower in “hERG current change (%, negative = inhibition) at 1uM” value: 26.4% for the first, 19.4% for the second.

Going from `CC(C)OC(=O)NCCOC(=O)Nc1ccccc1Cl` to `COC(=O)c1c(C(=O)OC)c2oc3ccccc3n2c1Cl`, the “hERG current change (%, negative = inhibition) at 1uM” value falls from 12% to 3.38%.

Going from `O=C(NC(=O)c1ccccc1)Nc1ccccc1` to `COc1ccccc1NC(=O)C(=O)NCC(c1ccco1)N1CCc2ccccc2C1` (centres unmarked), the “hERG current change (%, negative = inhibition) at 1uM” value falls from 15.9% to 10.6%.

Going from `CC(=O)OCn1nnc2ccccc2c1=O` to `Cn1c(C(F)(F)F)nc2c(=O)oc3ccccc3c21`, the “hERG current change (%, negative = inhibition) at 1uM” value falls from 11.3% to -7.06%.

Going from `O=C1NC(=O)/C(=C/c2ccccc2Cl)N1` to `O=C1NC(=O)C(c2ccccc2)(c2ccc(O)cc2)N1` (centres unmarked), the “hERG current change (%, negative = inhibition) at 1uM” value rises from 8.63% to 10.8%.

Going from `O=C(NCc1cccc(Br)c1)C1CC(c2cc(C(F)(F)F)cc(C(F)(F)F)c2)=NO1` (centres unmarked) to `Cc1c(C(=O)N2CCCC(C(F)(F)F)C2)oc2ccccc12` (centres unmarked), the “hERG current change (%, negative = inhibition) at 1uM” value falls from 5.59% to 4.51%.

First: CN(C)NC(=O)c1csnc1-c1c(Cl)cccc1Cl
Second: COn1c(C)c(C(C)=O)c2c3nonc3ccc21
The “hERG current change (%, negative = inhibition) at 1uM” value of the first is higher: 11.9% for the first, 7.26% for the second.

Going from `Cc1ccc(SC/C(O)=C(\C#N)c2nc3ccccc3n2C)cc1` to `CC(=N[C@@H]1CCCC[C@H]1N=C(C)c1ccccc1O)c1ccccc1O`, the “hERG current change (%, negative = inhibition) at 1uM” value falls from 5.99% to 4.66%.

First: OCCN1CCN(Cc2nc(-c3cccc(Cl)c3)no2)CC1
Second: Cl.O=C(O)CN1CCCCC1
The “hERG current change (%, negative = inhibition) at 1uM” value of the first is higher: 6.88% for the first, 1.57% for the second.
